From the supplement of paper PMC3334620
Over roughly 33,000 sequences, “E-score (-0.5 to 0.5)” has its median near -0.053; the highest 2% begin near 0.37. Some of the results follow.

biological target: Hap1 (UniProt P0CE41); assay: PBM E-score (8-mer binding enrichment) (E-score (-0.5 to 0.5)); higher = stronger / more preferred TF binding; most listed sequences are background and not binding sites; conditions: protein concentration: 200 nM; construct: GST-DNA-binding domain
Outline: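 PURExpress in vitro transcription/translation supplied GST-tagged yeast transcription factors, either full-length or DNA-binding domain. Applied at about 100-200 nM to universal all-10-mer Agilent arrays double-stranded by primer extension, the bound protein was detected with fluorescent anti-GST. E-scores, modified Wilcoxon-Mann-Whitney statistics, were given by the Universal PBM Analysis Suite to ungapped eight-base words pooled with their reverse complements after masliner normalisation.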

UniProt P0CE41, sequence (P0CE41 whole entry, the tested form may be a part): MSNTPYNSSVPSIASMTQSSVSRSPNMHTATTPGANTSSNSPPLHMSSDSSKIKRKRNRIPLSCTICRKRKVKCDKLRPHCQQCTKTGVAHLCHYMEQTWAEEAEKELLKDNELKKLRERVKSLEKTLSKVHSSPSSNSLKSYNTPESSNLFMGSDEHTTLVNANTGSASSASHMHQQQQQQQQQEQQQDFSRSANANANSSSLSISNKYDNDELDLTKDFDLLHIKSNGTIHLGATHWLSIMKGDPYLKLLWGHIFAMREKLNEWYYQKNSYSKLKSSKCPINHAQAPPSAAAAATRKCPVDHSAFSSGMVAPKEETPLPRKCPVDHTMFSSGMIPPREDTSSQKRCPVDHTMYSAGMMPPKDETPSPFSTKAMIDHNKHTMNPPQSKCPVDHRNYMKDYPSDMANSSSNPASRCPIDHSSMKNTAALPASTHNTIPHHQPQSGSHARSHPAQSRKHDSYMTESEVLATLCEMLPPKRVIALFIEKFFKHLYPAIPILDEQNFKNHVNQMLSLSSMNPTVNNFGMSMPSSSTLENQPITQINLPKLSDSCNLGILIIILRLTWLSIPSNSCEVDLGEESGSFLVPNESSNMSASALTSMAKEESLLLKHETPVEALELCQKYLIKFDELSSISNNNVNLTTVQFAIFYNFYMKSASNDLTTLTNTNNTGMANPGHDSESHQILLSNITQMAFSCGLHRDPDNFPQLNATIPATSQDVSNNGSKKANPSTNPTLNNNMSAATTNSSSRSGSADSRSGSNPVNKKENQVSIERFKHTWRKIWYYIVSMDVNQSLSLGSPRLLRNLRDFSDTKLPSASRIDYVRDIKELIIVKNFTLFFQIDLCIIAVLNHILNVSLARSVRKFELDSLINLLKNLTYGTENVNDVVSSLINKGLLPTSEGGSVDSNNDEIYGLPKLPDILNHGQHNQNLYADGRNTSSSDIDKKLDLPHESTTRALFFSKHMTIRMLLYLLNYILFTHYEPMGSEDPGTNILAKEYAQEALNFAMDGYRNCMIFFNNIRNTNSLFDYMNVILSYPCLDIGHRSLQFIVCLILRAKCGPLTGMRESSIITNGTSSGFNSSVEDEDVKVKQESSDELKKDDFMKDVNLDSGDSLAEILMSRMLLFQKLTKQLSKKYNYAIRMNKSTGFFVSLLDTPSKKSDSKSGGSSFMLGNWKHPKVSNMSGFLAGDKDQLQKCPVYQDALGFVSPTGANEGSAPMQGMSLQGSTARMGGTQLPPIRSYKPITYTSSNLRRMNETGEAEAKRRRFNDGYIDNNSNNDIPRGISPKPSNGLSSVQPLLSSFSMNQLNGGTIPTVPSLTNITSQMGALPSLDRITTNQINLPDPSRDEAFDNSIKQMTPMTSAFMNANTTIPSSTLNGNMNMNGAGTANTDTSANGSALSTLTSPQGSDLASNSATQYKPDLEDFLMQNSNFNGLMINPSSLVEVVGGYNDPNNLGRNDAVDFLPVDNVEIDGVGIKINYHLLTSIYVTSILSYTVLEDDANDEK

Sequence | PBM E-score
AGAGCGTG | -0.113
CCATGACC | -0.0264
AGCCGCGC | 0.114
AGGTGGCC | -0.0843
CACAAGGG | -0.352
ACACAGGT | -0.384
AGTGGGAC | -0.0427
ATAAGTAG | -0.117
ATGCGAAA | 0.0186
CTTATCTA | 0.0113
CCTTCCAG | -0.272
GGCCCGCA | 0.157
AGATGCCA | -0.197
AATGAAGA | -0.139
GAGTCTTA | -0.142
GGTCTCCA | -0.137
CCTTGACG | -0.108
AATTACGA | 0.0145
TATTTTCA | -0.0731
ACTCGTCG | -0.172
TCTGGGAA | -0.164
AGCTACCT | -0.0663
AATCGACA | 0.0198
ATTGCGAG | -0.0394

Sequence | PBM E-score
GCCACCAA | -0.0202
CACACCAA | -0.0413
ATGTCATA | -0.118
GTTCTAGA | -0.0501
CTGCTCCA | -0.239
AGCTTTTG | -0.167
TCGTCGAA | -0.379
GGACACAC | 0.21
CACTAGGG | -0.201
AGTACAAC | 0.0179
ACTCAGGG | -0.191
CGAGCGCG | 0.255
CCTAGTTC | -0.00076
CAATGCGG | 0.0834
AAGTATAG | -0.201
AGGCAGCC | -0.0546
AAAACGGG | 0.174
AATTGGGG | -0.0682
GAAGCTCA | -0.0573
CGCCTCCC | -0.146
AGAATGAA | -0.186
TAGTTGGA | -0.0576
TCGGCTAA | 0.291
AGACGGTA | -0.091

Sequence | PBM E-score
GCTCAGAC | -0.228
AACCCGTT | 0.198
ACTCGAGT | -0.261
CACCCAGC | 0.0736
ACAACGGT | 0.186
ACACGGTA | 0.0749
AAACGATG | 0.0211
ATATGGGC | -0.0119
TAGCTGCA | -0.23
CCACCGAC | 0.129
TACAGATA | -0.00692
AAAGAGAT | -0.23
AATCCTGC | -0.0722
ACGCGCAC | 0.0542
GAAGAGCA | -0.165
ATCCACCA | -0.215
CAAGAGCA | -0.164
CCACGCAA | -0.146
CTTGCTTA | -0.135
TACACCGA | 0.287
AACCCGGT | 0.365
ATATGCCA | -0.0262
GAAAAGGC | 0.141
AACACATA | -0.211

Sequence | PBM E-score
GTGCCTGA | -0.191
TCAACAAA | -0.0582
CATAGTAG | -0.233
CTATGAGC | -0.251
AAGTCCCC | -0.0842
AACCCGGG | 0.355
GAGGGTGA | -0.126
TAGCTAGA | -0.191
AAGTACGG | 0.0925
CGGCACCG | 0.34
AATGCCGC | 0.295
CACGACTC | -0.0837
GAACAACC | 0.184
CAATGCTC | -0.157
ATTGTAAG | -0.17
CAAACTTG | -0.117
GCAGTCGC | -0.261
ATAGGGGA | -0.116
GGCCGTGA | 0.148
ATGAGGCA | -0.21
ATATGCGC | 0.0604
ATATCATA | 0.0408
